{"source": "PubChem BioAssay AID588855", "about": "(National Center for Advancing Translational Sciences (NCATS), 2011)", "note": "About 5,000 (1.2%) of roughly 410,000 compounds were called active. Inconclusive results, whose numbers are uncertain, are shown with a selection of clear calls. Calls follow the shape of the dose curve; as a rule, active = well fitted inhibition curve with a large enough effect; inconclusive = small, poorly fitted or top-dose-only effect; inactive = no such curve, though single readings can be large or run the other way. Potencies of inconclusive entries are doubtful fits and often do not repeat. Potency is read from the fitted curve at half-maximal effect; tags tell the direction and shape of the fitted curve."}
{"assay": "qHTS for Inhibitors of TGF-b; also: nearly all actives have a fitted effect of over 65% in size", "details": "HepG2 CAGA-GFP TGF-b/SMAD3 reporter, GFP fluorescence, 18 h, TGF-beta stimulated, 500 pg/mL final; series mostly up to 46.1 µM", "summary_of_the_method": "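Cell-based qHTS in HEPG2 carrying a CAGA-GFP Smad reporter; compounds added before 500 pg/mL final TGF-beta, 18 h incubation at 37 degrees C, GFP fluorescence quantified per cell by imaging cytometry.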"}
{"smiles": "COc1cccc(CNC(=O)c2cc3c(=O)n(Cc4cccnc4)ccc3nc2C)c1", "Potency": "inconclusive: 12.6 µM [inhibitor, single point]"}
{"smiles": "COc1ccc(-c2sc3ccc(OC)cc3c2-c2ccc(OC)nc2)cc1", "Potency": "inactive"}
{"smiles": "Cc1cccc(OCC(=O)N2CCN(c3nnc(-c4ccccc4)c4ccccc34)CC2)c1", "Potency": "inconclusive: 10 µM [inhibitor, partial curve, poor fit]"}
{"smiles": "CCc1cc(=O)oc2c(C)c(OCC(=O)N3CCCc4ccccc43)ccc12", "Potency": "inconclusive: 15.8 µM [inhibitor, single point]"}
{"smiles": "CCOc1ccc(Nc2nc(C)c(NC(=O)c3cccc(F)c3)c(Nc3ccc(OCC)cc3)n2)cc1", "Potency": "inconclusive: 8.91 µM [inhibitor, partial curve]"}
{"smiles": "CC1(C)CC(NC(=O)c2ccc(Cl)c(S(=O)(=O)N(Cc3ccccc3)c3ccccc3)c2)CC(C)(C)N1", "Potency": "inconclusive: 17.8 µM [inhibitor, single point]"}
{"smiles": "COc1cccc(-c2oc3ccc(C)cc3c(=O)c2O)c1", "Potency": "active: 8.91 µM"}
{"smiles": "O=C(/C=C/c1ccncc1)c1ccc2c(c1)OCCO2", "Potency": "inconclusive: 35.5 µM [inhibitor, single point]"}
{"smiles": "CCC1Oc2ccc(C)cc2N(CC(=O)N2CCN(c3ccccc3OC)CC2)C1=O", "note": "(stereo not drawn)", "Potency": "inconclusive: 4.47 µM [inhibitor, partial curve]"}
{"smiles": "COc1cc2c(-c3ccc4cc[nH]c4c3)c(-c3ccc(C#N)cc3)oc(=O)c2cc1OC", "Potency": "inconclusive: 10 µM [inhibitor, partial curve, poor fit]"}
{"smiles": "Cc1noc(C)c1S(=O)(=O)N(CC(=O)NCCc1ccc(Cl)cc1)c1ccc(C(C)C)cc1", "Potency": "inactive"}
{"smiles": "O=C(CNc1ccc2ccccc2c1)N/N=C/c1ccc([N+](=O)[O-])o1", "Potency": "active: 8.91 µM"}
{"smiles": "COc1ccc(C(=O)/C=C/c2ccccc2)c(OC)c1", "Potency": "inconclusive: 35.5 µM [inhibitor, single point]"}
{"smiles": "CCN(c1ccccc1)S(=O)(=O)c1ccc(Cl)c(NC(=O)CN2C(=O)NC3(CCCC3)C2=O)c1", "Potency": "inconclusive: 3.98 µM [inhibitor, partial curve, poor fit]"}
{"smiles": "CC(C)(C)c1ccc(CSc2nc(N)cc(=O)[nH]2)cc1", "Potency": "inconclusive: 3.16 µM [inhibitor, single point]"}
{"smiles": "CCOc1ccc(S(=O)(=O)Nc2cc(Cl)ccc2O)cc1", "Potency": "inconclusive: 35.5 µM [inhibitor, partial curve, poor fit]"}
{"smiles": "O=C(COc1ccccc1F)NC1CCN(Cc2ccccc2)CC1", "Potency": "inactive"}
{"smiles": "Cc1ccc(Cn2c(CNC(=O)c3ccc(Cl)c([N+](=O)[O-])c3)nc3cccnc32)cc1", "Potency": "inconclusive: 15.8 µM [inhibitor, single point]"}
{"smiles": "COc1ccc(CN2C[C@]3(CO)O[C@@H](CO)C[C@@H]3S2(=O)=O)cc1", "Potency": "inconclusive: 17.8 µM [inhibitor, partial curve, poor fit]"}
{"smiles": "Cc1ccc(CNC(=O)CSc2nc3ccsc3c(=O)n2-c2ccc(Br)cc2)cc1", "Potency": "inconclusive: 22.4 µM [inhibitor, single point]"}
{"smiles": "CN1CCN(C(c2ccc(C(F)(F)F)cc2)c2ccc3cccnc3c2O)CC1", "note": "(stereo not drawn)", "Potency": "inconclusive: 7.94 µM [inhibitor, partial curve]"}
{"smiles": "O=C(NC(NC(=S)Nc1ccccc1Cl)C(Cl)(Cl)Cl)c1cccc(Cl)c1", "note": "(stereo not drawn)", "Potency": "inconclusive: 12.6 µM [inhibitor, partial curve, poor fit]"}
{"smiles": "CCOc1cc(/C=N/N=C2/NC(=O)C(CC(=O)O)S2)ccc1OCc1ccc(Cl)cc1", "note": "(stereo not drawn)", "Potency": "inconclusive: 6.31 µM [inhibitor, single point]"}
{"smiles": "O=C(c1ccc(F)c(S(=O)(=O)N2CCOCC2)c1)N(c1ccccc1)c1ccccn1", "Potency": "inconclusive: 35.5 µM [inhibitor, single point]"}
{"smiles": "CNC(=O)C1CN(C(=O)c2cccc(S(=O)(=O)N3c4ccccc4CC3C)c2)c2ccccc2O1", "note": "(stereo not drawn)", "Potency": "inconclusive: 7.08 µM [inhibitor, partial curve, poor fit]"}
{"smiles": "Cc1ccc(S(=O)(=O)Nc2ccccc2CNc2ncc(Br)cc2Br)cc1", "Potency": "inconclusive: 31.6 µM [inhibitor, single point]"}
{"smiles": "CCc1ccc(NCc2ccc(OC)c(Cn3ccnc3)c2)cc1", "Potency": "inconclusive: 35.5 µM [inhibitor, single point]"}
{"smiles": "CCn1c(=O)c(C(=O)Nc2nc3ccccc3[nH]2)c(O)c2ccccc21", "Potency": "active: 2 µM"}
{"smiles": "Cc1ccnc2nc(C(=O)Nc3ccc(N4CCOCC4)cc3)nn12", "Potency": "inconclusive: 1.12 µM [inhibitor, partial curve, poor fit]"}
{"smiles": "Cc1cc(C)n(CCC(=O)N/N=C/c2c(O)ccc3ccccc23)n1", "Potency": "inconclusive: 35.5 µM [inhibitor, partial curve, poor fit]"}
{"smiles": "COc1cc(NC(=O)Cn2ccc3ccccc3c2=O)cc(OC)c1OC", "Potency": "inactive"}
{"smiles": "CN1CC(=O)N2[C@H]3c4ccccc4OC[C@@H]3[C@H](c3ccccc3)[C@]2(C)C1=O", "Potency": "inconclusive: 4.47 µM [inhibitor, partial curve, poor fit]"}
{"smiles": "CC(C)OC(=O)C(C#N)c1nc2ccccc2nc1N1CCN(Cc2ccccc2)CC1", "note": "(stereo not drawn)", "Potency": "inconclusive: 6.31 µM [inhibitor, single point]"}
{"smiles": "Cc1ccc(NC(=S)Nc2ccccn2)c(C)c1", "Potency": "inconclusive: 28.2 µM [inhibitor, single point]"}
{"smiles": "Cc1ccc(NC(=O)COC(=O)c2ccc([N+](=O)[O-])o2)cc1S(=O)(=O)N1CCCCC1", "Potency": "inconclusive: 8.91 µM [inhibitor, partial curve, poor fit]"}
{"smiles": "COc1ccc(-n2nnnc2-c2cnc(N3CCCC3)nc2C(F)(F)F)cc1", "Potency": "inconclusive: 22.4 µM [inhibitor, single point]"}
{"smiles": "COc1ccc(CN(C)C(=O)/C=C/c2ccc(S(=O)(=O)N3CCCCCC3)cc2)cc1", "Potency": "inconclusive: 22.4 µM [inhibitor, single point]"}
{"smiles": "CC(C)c1cccc(-c2csc(C(C)(O)c3ccncc3)n2)c1", "note": "(stereo not drawn)", "Potency": "inconclusive: 6.31 µM [inhibitor, full curve, poor fit]"}
